# Values quoted from earlier work as cited in PMC11006913.
# Where a chain is given by its changes, count along the chain named. This is one part of the list.
# Assays:
# Details in all cases: PBM; conditions not shown; double strand, one strand shown; scale: upbm affinity estimate (log intensity, higher = more binding, comparable within an allelic series)
# [1] = biological target: T1, HESX1 E149K (Homo sapiens) (UniProt Q9UBX0)
# T1 sequence: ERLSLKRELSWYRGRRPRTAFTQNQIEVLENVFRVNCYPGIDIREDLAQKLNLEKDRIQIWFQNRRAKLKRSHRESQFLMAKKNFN
# [2] = biological target: T2, HESX1 N125S (Homo sapiens) (UniProt Q9UBX0)
# T2 sequence: T1 sequence with N31S, K55E
# [3] = biological target: T3, HESX1 R160C (Homo sapiens) (UniProt Q9UBX0)
# T3 sequence: T1 sequence with K55E, R66C
# [4] = biological target: HOXD13 I297V (Homo sapiens) (UniProt P35453)
# [5] = biological target: HOXD13 I322L (Homo sapiens) (UniProt P35453)
# [6] = biological target: HOXD13 N298S (Homo sapiens) (UniProt P35453)
# [7] = biological target: HOXD13 Q325K (Homo sapiens) (UniProt P35453)
# [8] = biological target: HOXD13 Q325R (Homo sapiens) (UniProt P35453)
# [9] = biological target: HOXD13 R306W (Homo sapiens) (UniProt P35453)
# [10] = biological target: HOXD13 S316C (Homo sapiens) (UniProt P35453)
# [11] = biological target: NKX2-5 K183E (Homo sapiens) (UniProt P52952)
# [12] = biological target: NKX2-5 R161P (Homo sapiens) (UniProt P52952)
# [13] = biological target: NKX2-5 R190C (Homo sapiens) (UniProt P52952)
# [14] = biological target: T4, PBX4 (Homo sapiens) (UniProt Q9BYU1)
# T4 sequence: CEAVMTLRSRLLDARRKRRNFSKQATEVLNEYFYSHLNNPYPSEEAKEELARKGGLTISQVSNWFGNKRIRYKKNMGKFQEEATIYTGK
# [15] = biological target: T5, PBX4 R215Q (Homo sapiens) (UniProt Q9BYU1)
# T5 sequence: T4 sequence with R19Q
# [16] = biological target: PROP1 R112Q (Homo sapiens) (UniProt O75360)
# [17] = biological target: PROP1 R99Q (Homo sapiens) (UniProt O75360)
# [18] = biological target: ISX (Homo sapiens) (UniProt Q2M1V0)
# [19] = biological target: ISX R83Q (Homo sapiens) (UniProt Q2M1V0)
# [20] = biological target: PITX2 L100Q (Homo sapiens) (UniProt Q99697)
# [21] = biological target: PITX2 R108H (Homo sapiens) (UniProt Q99697)
# [22] = biological target: PITX2 R130W (Homo sapiens) (UniProt Q99697)
# [23] = biological target: PITX2 T114P (Homo sapiens) (UniProt Q99697)
sequence,measurement,setting,value
AGGCGCCC [8-mer AGGCGCCC],binding signal,[1],9.73
same,binding signal,[2],7.56
same,binding signal,[3],9.92
same,binding signal,[4],9.41
same,binding signal,[5],9.31
same,binding signal,[6],9.43
same,binding signal,[7],9.25
same,binding signal,[8],9.39
same,binding signal,[9],9.22
same,binding signal,[10],9.28
GGCCTCAC [8-mer GGCCTCAC],binding signal,[1],9.91
same,binding signal,[2],7.84
same,binding signal,[3],9.97
AGGCGCCT [8-mer AGGCGCCT],binding signal,[1],9.9
same,binding signal,[2],7.71
same,binding signal,[3],10
CTGACGCC [8-mer CTGACGCC],binding signal,[1],9.85
same,binding signal,[2],7.44
same,binding signal,[3],9.94
CCTGGGCA [8-mer CCTGGGCA],binding signal,[1],9.84
same,binding signal,[2],7.76
same,binding signal,[3],9.96
GGGCCAAC [8-mer GGGCCAAC],binding signal,[1],9.94
same,binding signal,[2],7.95
same,binding signal,[3],9.97
same,binding signal,[4],9.53
same,binding signal,[5],9.49
same,binding signal,[6],9.44
same,binding signal,[7],9.46
same,binding signal,[8],9.48
same,binding signal,[9],9.48
same,binding signal,[10],9.49
ACCCCCGC [8-mer ACCCCCGC],binding signal,[1],9.98
same,binding signal,[2],7.66
same,binding signal,[3],10
AGTGCGCC [8-mer AGTGCGCC],binding signal,[1],9.91
same,binding signal,[2],7.7
same,binding signal,[3],10
CCCCCCGG [8-mer CCCCCCGG],binding signal,[1],9.4
same,binding signal,[2],7.33
same,binding signal,[3],9.79
same,binding signal,[4],8.74
same,binding signal,[5],8.74
same,binding signal,[6],8.72
same,binding signal,[7],9.25
same,binding signal,[8],9.13
same,binding signal,[9],8.87
same,binding signal,[10],8.76
same,binding signal,[11],9.47
same,binding signal,[12],9.46
same,binding signal,[13],9.61
same,binding signal,[14],9.21
same,binding signal,[15],9.56
same,binding signal,[16],10.5
same,binding signal,[17],10.6
GACGAGCC [8-mer GACGAGCC],binding signal,[1],10
same,binding signal,[2],7.61
same,binding signal,[3],10.2
AATTATAA [8-mer AATTATAA],binding signal,[1],11.3
same,binding signal,[2],11.4
same,binding signal,[3],10.2
same,binding signal,[18],14.6
same,binding signal,[19],13.2
CCCGGGCC [8-mer CCCGGGCC],binding signal,[1],9.73
same,binding signal,[2],7.56
same,binding signal,[3],9.84
AGCGCCAT [8-mer AGCGCCAT],binding signal,[1],10
same,binding signal,[2],7.73
same,binding signal,[3],10.2
GCCGCTCC [8-mer GCCGCTCC],binding signal,[1],9.87
same,binding signal,[2],7.53
same,binding signal,[3],9.95
CAGGGCCA [8-mer CAGGGCCA],binding signal,[1],9.85
same,binding signal,[2],7.79
same,binding signal,[3],10.1
same,binding signal,[4],9.43
same,binding signal,[5],9.39
same,binding signal,[6],9.43
same,binding signal,[7],9.46
same,binding signal,[8],9.32
same,binding signal,[9],9.38
same,binding signal,[10],9.37
same,binding signal,[18],9.69
same,binding signal,[19],9.79
same,binding signal,[20],8.19
same,binding signal,[21],8.03
same,binding signal,[22],8.02
same,binding signal,[23],8.06
ACCCCCAG [8-mer ACCCCCAG],binding signal,[1],9.9
same,binding signal,[2],7.71
same,binding signal,[3],10
same,binding signal,[11],10
same,binding signal,[12],10.2
same,binding signal,[13],10
AGCCCGGA [8-mer AGCCCGGA],binding signal,[1],9.85
same,binding signal,[2],7.59
same,binding signal,[3],10
same,binding signal,[11],10
same,binding signal,[12],10.2
same,binding signal,[13],10.1
